# From PubChem BioAssay AID1745853 (National Center for Advancing Translational Sciences (NCATS), 2022)
# “And” between values parts separate entries of the source, which are not always exact repeats. Equal values may be shown once. Some of the results follow. These are further read-outs of the screen, such as a control signal, another cell line or another target. No call is given for them.
# Legend:
# Assay in all cases: Primary Screen for Target Class Profiling of Small Molecule Inhibitors of Methyltransferases
# [1] = target: Glycine N-methyltransferase (Homo sapiens) (UniProt Q14749); settings: purified enzyme, MTase-Glo SAH luminescence; measured here: GNMT inhibition; at 40 µM; stronger effect = lower value
# Summary of the method: (§1)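 Each enzyme was reacted with SAM and its substrate, with compounds tested once at 40 uM; SAH formed was read by MTase-Glo luminescence.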
# [2] = target: Guanidinoacetate N-methyltransferase (Homo sapiens) (UniProt Q14353); settings: purified enzyme, MTase-Glo SAH luminescence; measured here: GAMT inhibition; at 40 µM; stronger effect = lower value
# Summary of the method: as §1
# [3] = target: Histamine N-methyltransferase (Homo sapiens) (UniProt P50135); settings: purified enzyme, MTase-Glo SAH luminescence; measured here: HNMT inhibition; at 40 µM; stronger effect = lower value
# Summary of the method: as §1
# [4] = target: Nicotinamide N-methyltransferase (Homo sapiens) (UniProt P40261); settings: purified enzyme, MTase-Glo SAH luminescence; measured here: NNMT inhibition; at 40 µM; stronger effect = lower value
# Summary of the method: as §1
# [5] = target: Phenylethanolamine N-methyltransferase (Homo sapiens) (UniProt P11086); settings: purified enzyme, MTase-Glo SAH luminescence; measured here: PNMT inhibition; at 40 µM; stronger effect = lower value
# Summary of the method: as §1
# On the % scale 0 is the no-effect control and ±100 the full control effect.
Structure (SMILES),"activity change, negative = inhibition [1]","activity change, negative = inhibition [2]","activity change, negative = inhibition [3]","activity change, negative = inhibition [4]","activity change, negative = inhibition [5]"
CCCN1C[C@@H](CO)[C@H](c2nc(CCOC)no2)C1,0.439%,-2.16%,2.45%,1.66%,2.37%
COc1cccc(-c2cc(CC3(O)CCN(c4nnc(C)o4)CC3)on2)c1,-2.7%,-1.62%,0.637%,-3.93%,-3.75%
Cc1ccc(Cn2c(=O)c3ccccc3n3c(CCC(=O)NC4CCN(Cc5ccccc5)CC4)nnc23)cc1,-7.81%,5.13%,-21.4%,3.5%,-4.78%
O=C(NCCc1ccccc1)c1ccc2c(=O)nc3c(-c4ccccc4)n[nH]n3c2c1,-2.38%,1.08%,2.64%,-2.46%,-2.96%
COc1ccc(Nc2ccc3c(n2)CN(Cc2ccccc2C)C(=O)CO3)cc1,-11.1%,-5.77%,-12.4%,-18.8%,-3.94%
O=C(NCCc1ccccc1)C1CCC(=O)N(CCCN2CCOCC2)C1 (centres undefined),-1.02%,1.18%,1.4%,2.22%,-1.72%
Cc1ccnc(NC(=O)C(C)c2cccc(C(=O)c3ccccc3)c2)c1 (centres undefined),-3.96%,8.88%,10.3%,-16.8%,-2.01%
CC(=O)Nc1c2n(c3ccccc13)CC(C)(C(=O)NC1CCCC1)N(Cc1ccccc1)C2=O (centres undefined),-0.528%,3.1%,2.87%,4.73%,2.22%
CC(C)=CCN1Cc2ccccc2NC(=O)C12CCNC2 (centres undefined),0.111%,-1.28%,-8.7%,-3.98%,4.46%
COc1cc2c(NC3CCN(C(C)C)CC3)nc(C3CCCCC3)nc2cc1OCCCN1CCCC1,-6.91% and -3.35%,4.81%,-81.1% and -4.43%,-44.4% and -40.3%,2.76% and 14.4%
O=C(Nc1ccccc1)Nc1ccc(-c2ccc(C(=O)C3CCCC3C(=O)O)cc2)cc1 (centres undefined),-19.1%,4.93%,9.32%,-23%,2.94%
CC(C)c1cc2n(n1)CC(C)(C(=O)NC1CCCCC1)N(Cc1ccc(Cl)cc1)C2=O (centres undefined),-9.12%,2.67%,-1.93%,-6.03%,-2.71%
CCCn1c(=O)c2cc(Cl)ccc2n2c(SCC(=O)Nc3ccc(F)cc3)nnc12,-2.11%,-0.069%,4.6%,-8.73%,-2.03%
CCCSCCCN1C(=O)c2cc3sc(CC)cc3n2CC1(C)C(=O)NC1CCC(C)CC1 (centres undefined),-0.071%,2.07%,4.72%,-3.21%,0.761%
CC(C)Cn1c(=O)c2ccc(C(=O)NC(C)C)cc2n2c(=O)n(CC(=O)Nc3cc(F)ccc3F)nc12,0.78%,3.33%,4.56%,0.502%,0.925%
Clc1ccc(-c2nnn3c2nc(N2CCCCC2)c2ccccc23)cc1,2.31%,0%,1.84%,7.33%,-1.1%
COc1cccc(CN2CCNC(=O)C2CC(=O)N2CCNC(=O)C2)c1OC (centres undefined),-3.03%,-7.1%,0.92%,-8.25%,-10.1%
C#Cc1cccc(Nc2ncnc3cc(OC)c(OCCCCCCC(=O)NO)cc23)c1,-54.3% and -40.8%,-42.7%,-65.8% and -42.3%,-51.1% and -49.1%,-62.1% and -56.2%
COCCN1CCC2(CCC1=O)CN(C(=O)NC(C)C)CCN2C (centres undefined),-1.35%,0.842%,1.99%,-0.493%,13.8%
O=C(O)C1CN(Cc2ccc(-c3nc4cc(Cc5ccccc5F)ccc4s3)c(F)c2)C1,2.43%,5.34%,5.25%,-7.76%,2.64%
c1nc(NCC2CCOC2)c2cc(-c3ccc4c(c3)OCO4)ccc2n1 (centres undefined),–,-31.2%,–,-39.3%,-50.6%

Structure (SMILES),"activity change, negative = inhibition [1]","activity change, negative = inhibition [2]","activity change, negative = inhibition [3]","activity change, negative = inhibition [4]","activity change, negative = inhibition [5]"
CC1CCC(NC(=O)C2(C)Cn3c(cc4sccc43)C(=O)N2Cc2ccccc2F)CC1 (centres undefined),-2.87%,3.39%,-1.74%,-0.065%,-7.7%
O=C(c1cn2ccccc2n1)N1C[C@@H](CO)[C@H](c2ccccn2)C1,-0.019%,-1.53%,-0.2%,1.96%,3.72%
C=C(C)n1c(=O)n(Cc2ccccc2C)c2ccccc21,-6.85%,0.118%,-2.04%,-8.22%,-2.84%
FC(F)(F)c1ccc(CNc2ccc(Cc3c[nH]c4ncccc34)cn2)cc1,-2.77%,-5.67%,-23.9%,-38.1%,-22.9%
CCCN1C(=O)c2c(C(=O)NCc3cccc(C)c3)ncn2CC1(C)C(=O)NCc1ccccc1 (centres undefined),-1.53%,0%,9%,8.87%,5.39%
CC1(C(=O)NC2CCCC2)Cn2cnc(C(=O)NCCc3ccc(Cl)cc3)c2C(=O)N1C1CC1 (centres undefined),0.088%,0%,3.17%,0.657%,2.69%
CCOC(=O)C1=C(C)NC2=C(C(=O)CC(C)(C)C2)C1c1ccc(-c2ccccc2)cc1 (centres undefined),-11.6%,-40.3%,-5.12%,-45.6%,-22.1%
Cc1ccc2c(c1)c1c3n2CCN(CCC(=O)O)C3CCC1 (centres undefined),-10.1%,0.821%,-2.38%,6.62%,-8.22%
Cc1c(O)cc(O)c2c(=O)c(O)c(-c3ccc(O)c(O)c3)oc12,-11.8%,5.28%,-8.44%,-7.84%,-11.2%
COc1cccc2c1c(O)c(C(=O)N(C)c1ccc(C(F)(F)F)cc1)c(=O)n2C,1.24%,-0.657%,6.66%,-12.3%,-1.22%
S=C(c1ccc(-c2ccc(Cl)c(Cl)c2)o1)N1CCCCC1,1.72%,-12.1%,10.8%,-40.2%,-12.5%
Cc1nn(C)c(C)c1NC(=O)CC[C@H]1NC(=O)c2ccccc2NC1=O,0.662%,-3.44%,2.06%,-5.74%,-9.77%
CCCSCCCN1C(=O)c2cc3occc3n2CC1(C)C(=O)NC1CCCCC1C (centres undefined),0.555%,6.82%,-0.497%,-2.24%,-1.78%
COc1ccc(OC)c(CN2CCC3(CC2)Nc2ccccc2NC3=O)c1,-3.25%,0.589%,-13.3%,-1.72%,0.666%
CC1CCCCN1S(=O)(=O)c1ccc(NC(=O)CN2C(=O)c3ccccc3S2(=O)=O)cc1 (centres undefined),-2.1%,2.31%,-0.196%,-5.46%,-3.05%
CC(=O)Nc1c2n(c3ccc(F)cc13)CC(C)(C(=O)NC1CCCCCC1)N(CCN(C)C)C2=O (centres undefined),0.216%,-3.4%,-0.744%,-0.063%,1.82%
NNCCc1ccccc1,-7.56%,10.4%,-20.9%,-10.4%,-7.7%
COc1ccc(Cl)c(Nc2ncnc3cc(OCC4CCN(C)CC4)c(OC)cc23)c1,-14.2%,4.01%,-39.9%,-13.9%,-14.9%
CN1C(=O)c2cc(C(=O)NCCC3=CCCCC3)nn2CC1(C)C(=O)NC1CCCCCC1 (centres undefined),4.47%,0%,3.1%,4.95%,0.544%
Nc1nc(Nc2ccc3c(c2)CC[C@@H](N2CCCC2)CC3)nn1-c1cc2c(nn1)-c1ccccc1CCC2,–,1.54%,–,-29.3%,-13.6%
CCOC(=O)c1cc2n(n1)CC(C)(C(=O)NC1CCCC1)N(Cc1ccc(OC)cc1)C2=O (centres undefined),5.29%,1.08%,8.43%,10%,5.51%

Structure (SMILES),"activity change, negative = inhibition [1]","activity change, negative = inhibition [2]","activity change, negative = inhibition [3]","activity change, negative = inhibition [4]","activity change, negative = inhibition [5]"
C=C1CC[C@@H]2[C@](C)(CO[C@@H]3O[C@H](CO)[C@@H](O)[C@H](O)[C@H]3O)[C@H](O)CC[C@@]2(C)[C@@H]1C/C=C1/C(=O)OC[C@H]1O,-4.51%,-17.7%,2.51%,-27.4%,-2.69%
Cc1ccccc1N1C(=O)c2cc3occc3n2CC1(C)C(=O)NC1CCCCCC1 (centres undefined),2.42%,0.547%,5.32%,-0.536%,-1.15%
CSCC(=O)N[C@H]1CCN2C(=O)c3ccc(Cl)cc3NC(=O)[C@@H]2C1,-0.988%,-0.621%,-13.6%,0.833%,0.922%
COCCN1C(=O)c2c(NC(C)=O)c3cc(OC)ccc3n2CC1(C)C(=O)NC1CCCCCC1 (centres undefined),2.33%,0%,6.5%,5.78%,0.311%
CCOCCOC1CCN(C(=O)c2cccc3[nH]ccc23)CC1,-6.74%,-10.4%,-3.58%,-21.9%,-19.3%
CCCCn1c(-c2ccccc2)nc(-c2ccccc2)c1CN(Cc1ccc2c(c1)OCO2)Cc1ccc2c(c1)OCO2,-7.52%,-37.3%,0.123%,-42.4%,-16.4%
C=CCn1c(=O)c2ccc(C(=O)NC(C)C)cc2n2c(=O)[nH]nc12,1.72%,0.764%,8.25%,7.81%,0.552%
Cc1ccc(C(C(=O)O)N2CCC(CCN3CCCC3=O)CC2)cc1C (centres undefined),-1.15%,-4.79%,-0.305%,-0.448%,-4.18%
CCOC(=O)c1ccc2c(c1)[C@@H]1C=CC[C@@H]1[C@H](c1cccc(Br)c1)N2,-13.1%,-3.53%,-12.8%,-11.6%,-16.1%
C[C@@]1(C(=O)Nc2ccc(F)nc2)CCCN1c1nc(Nc2cc(C3CC3)[nH]n2)c2cccn2n1,-3.76%,-2.73%,0.338%,-23.9%,-8.38%
O=C1NC(=O)/C(=C/c2ccc3c(c2)OCO3)S1,–,0.398%,–,-21.2%,-8.34%
CCNC(=O)NCCCOc1cccc(CN2CCCCC2)c1,1.66%,6.18%,-7.68%,-11.3%,-3.18%
Cc1nnc2n1CCC(NC(=O)CCCc1c[nH]c3ccccc13)CC2 (centres undefined),-2.74%,-6.67%,-1.38%,-10.4%,-5.95%
COc1cccc(CN2CCCC3(CCN(C(=O)c4cnc(C)cn4)C3)C2)c1 (centres undefined),0.212%,0.95%,-0.868%,-2.66%,-0.347%
COc1ccc(-c2ccc(N)[n+](CCCC(=O)O)n2)cc1,-2.27%,7.14%,4.55%,-6.16%,4.93%
C=C[C@]1(C)C[C@H](O)[C@H]2C(=C)C(=O)O[C@@H]2[C@H]1C(=C)CO,-3.33%,-3.56%,4.17%,-11.1%,-5.79%
CCCn1cnc2c1CN(S(=O)(=O)c1ccc(F)cc1)[C@H](C(=O)OC)C2,-4.18%,-7.17%,-1.03%,-13.7%,-8.35%
CCCN(CCC)C(=O)c1coc(COc2ccc3sc(C)nc3c2)n1,-3.18%,3.69%,1.72%,-6.81%,13.4%
CCc1ncc(-c2c(-c3ccccc3)ncn2CCCOc2cccnc2)cn1,-1.02%,1.49%,-4.11%,-4.42%,4.67%
CCCN1C(=O)c2c(C(=O)NCCc3ccc(Cl)cc3)ncn2CC1(C)C(=O)NCc1ccc(C)cc1 (centres undefined),-1.07%,0%,10.7%,5%,-13.7%
